The results in this text go back to US20240254252A1 (Genmab, published 2024).

What all share (experiment): cell-based or functional assay
Test [1] has as its target T1, human CD38 expressed on the cell surface (human, UniProt P28907 1-300).
Test [2] has as its target T1, human CD38 expressed on the cell surface. The source holds these as a separate data set.
For test [3] the target is unchanged. The source holds these as a separate data set.

Read-outs that look alike come from different tables or passages of the source.

B1: IgG1-C (antibody)
heavy: QVQLVQSGAEVKKPGSSVKVSCKAFGGTFSSYAISWVRQAPGQGLEWMGRIIRFLGIANYAQKFQGRVTLIADKSTNTAYMELSSLRSEDTAVYYCAGEPGERDPDAVDIWGQGTMVTVSSASTKGPSVFPLAPSSKSTSGGTAALGCLVKDYFPEPVTVSWNSGALTSGVHTFPAVLQSSGLYSLSSVVTVPSSSLGTQTYICNVNHKPSNTKVDKRV[not shown - human IgG1 Fc]
light: [not shown - about 200 residues]
In the case of B1, the “percent lysis (CDC, Ramos and Daudi cells)” value in test [1] is approximately 50%. For the same molecule, in test [2], the “EC50 of lysis (CDC, Daudi cells)” value was 0.25 µg/mL; the “EC50 of lysis (CDC, Ramos cells)” value is 0.158 µg/mL; the “EC50 of lysis (CDC, Wien-133 cells)” value stood at 0.193 µg/mL.

B2: IgG1-C-E430G (antibody)
heavy: QVQLVQSGAEVKKPGSSVKVSCKAFGGTFSSYAISWVRQAPGQGLEWMGRIIRFLGIANYAQKFQGRVTLIADKSTNTAYMELSSLRSEDTAVYYCAGEPGERDPDAVDIWGQGTMVTVSSASTKGPSVFPLAPSSKSTSGGTAALGCLVKDYFPEPVTVSWNSGALTSGVHTFPAVLQSSGLYSLSSVVTVPSSSLGTQTYICNVNHKPSNTKVDKRV[not shown - human IgG1 Fc with E430G (EU numbers)]
light: [not shown - about 200 residues]
notes: also called E430G mutated C; IgG-C-E430G
Turning to B2, the “percent lysis (CDC, Ramos and Daudi cells)” value in test [1] is not above 100%. Also, in test [3], the “EC50 of lysis (CDC, 697 cells)” value amounted to 0.087 µg/mL; the “EC50 of lysis (CDC, AML-193 cells)” value was 0.032 µg/mL; the “EC50 of lysis (CDC, DOHH2 cells)” value was 0.115 µg/mL; the “EC50 of lysis (CDC, Daudi cells)” value was 0.03 µg/mL. In test [3], the “EC50 of lysis (CDC, HL-60 cells)” value was determined as 0.07 µg/mL; the “EC50 of lysis (CDC, JVM-3 cells)” value was 0.11 µg/mL; the “EC50 of lysis (CDC, JVM-13 cells)” value turned out to be 0.146 µg/mL; the “EC50 of lysis (CDC, Jeko-1 cells)” value was determined as 0.108 µg/mL. Besides, in test [3], the “EC50 of lysis (CDC, KG-1 cells)” value came to 0.104 µg/mL; the “EC50 of lysis (CDC, MEGAL cells)” value is 0.17 µg/mL; the “EC50 of lysis (CDC, ML-2 cells)” value worked out at 0.023 µg/mL; the “EC50 of lysis (CDC, MOLM-13 cells)” value was determined as 0.017 µg/mL. In test [3], the “EC50 of lysis (CDC, NALM-16 cells)” value was 0.022 µg/mL; the “EC50 of lysis (CDC, Nomo-1 cells)” value was 0.039 µg/mL; the “EC50 of lysis (CDC, Oci-AML3 cells)” value is 0.046 µg/mL; the “EC50 of lysis (CDC, Oci-Ly18 cells)” value came to 0.057 µg/mL. Moreover, in test [3], the “EC50 of lysis (CDC, Oci-Ly-7 cells)” value was 0.012 µg/mL; the “EC50 of lysis (CDC, Oci-Ly-19 cells)” value is 0.031 µg/mL; the “EC50 of lysis (CDC, REH cells)” value turned out to be 0.039 µg/mL; the “EC50 of lysis (CDC, RS4;11 cells)” value stood at 0.093 µg/mL. In test [3], the “EC50 of lysis (CDC, Raji cells)” value turned out to be 0.036 µg/mL; the “EC50 of lysis (CDC, Ramos cells)” value was determined as 0.013 µg/mL; the “EC50 of lysis (CDC, SU-DHL-4 cells)” value was 0.073 µg/mL; the “EC50 of lysis (CDC, SU-DHL-8 cells)” value turned out to be 0.009 µg/mL. Besides, in test [3], the “EC50 of lysis (CDC, THP-1 cells)” value turned out to be 0.075 µg/mL; the “EC50 of lysis (CDC, U266 cells)” value was found to be 0.052 µg/mL; the “EC50 of lysis (CDC, U937 cells)” value was 0.057 µg/mL; the “EC50 of lysis (CDC, WSU-DLCL2 cells)” value came out at 0.345 µg/mL. For the same molecule, in test [3], the “EC50 of lysis (CDC, Wien133 cells)” value is 0.015 µg/mL; the “EC50 of lysis (CDC, Z-138 cells)” value turned out to be 0.106 µg/mL; the “EC50 of lysis (CDC, monomac6 cells)” value is 0.093 µg/mL. Also, in test [2], the “EC50 of lysis (CDC, Daudi cells)” value is 0.019 µg/mL; the “EC50 of lysis (CDC, NALM-16 cells)” value was found to be 0.022 µg/mL; the “EC50 of lysis (CDC, REH cells)” value was 0.017 µg/mL; the “EC50 of lysis (CDC, RS4;11 cells)” value was 0.056 µg/mL. In addition, in test [2], the “EC50 of lysis (CDC, Ramos cells)” value was 0.014 µg/mL; the “EC50 of lysis (CDC, U266 cells)” value was 0.052 µg/mL; the “EC50 of lysis (CDC, Wien-133 cells)” value was determined as 0.015 µg/mL.
